Test results from patent US9788539B2, “Platelet protection solution having beta-galactosidase and sialidase inhibitors” (Velico Medical, Inc., priority 2011, dated 2017).

Test system: mouse platelets
Conditions: in vivo
Protocol: Incubation of mouse platelets with increasing concentrations of the broad spectrum A. ureafaciens α2-3,6,8-sialidase increased surface β-galactose exposure, but not β-GlcNAc, as detected by lectin binding assays in the flow cytometer (FIG. 16). FIG. 17 presents progressive loss of surface of surface GPIbα and GPV in conjunction with decrease in sialic acid content (p<0.05). GPIbα receptor expression was followed with multiple anti-GPIbα antibodies to exclude the possibility that desialylation altered antibody binding to GPIbα. […] FIG. 20 confirms the flow cytometry data shown in FIG. 19 by using immunoblot analysis of total platelet lysates, platelet supernatants, and corresponding platelet pellets with or with addition of neuraminidase and DANA.

CC(=O)NC1C(O)C=C(C(=O)O)OC1C(O)C(O)CO (stereo not shown) [DANA]
platelet survival of room temperature stored mouse platelets: preserved
